# Laboratory results: the RNAGym collection of RNA variant scans (doi:10.1093/nar/gkz1192)
# Read counts are not given, so values of variants with three or more changes are uncertain.
# B1: CPEB3 Ribozyme (parent)
# chain: UAACAGGGGGCCACAGCAGAAGCGUUCACGUCGCAGCCCCUGUCAGAUUCUGGUGAAUCUGCGAAUUCUGCUGUAUAUCUC
# Variants of: B1
# Experiment: self-cleavage, relative activity (ratio to wild type); higher = more cleavage; in vitro, sequencing
# In short: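 For each CPEB3 ribozyme variant, relative activity is its cleaved/total read fraction divided by the unmutated ribozyme's. Barcoded error-prone PCR libraries were transcribed by T7 RNA polymerase (5 hours, 37°C) and held in DNase I for 15 min before an EDTA stop, with cleavage occurring throughout. Template-switching reverse transcription and Illumina sequencing were used to read the RNAs. A 5-read minimum applied, and results are the mean of three batches.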
row,Variant,self-cleavage
1,UAUCAGGGGGCCACAGCAGAAGCGUUCACGUCGCAGCCCCUGUCAGAUUCUGGAGAAUCCGCGAAUUCUGCUGUAUAUCUC,0.49
2,UAUCAGGGGGCCACAGCAGAAGCGUUCACGUCGCAGCCCCUGUCAGAUUCUGGCGAAUCUGCGAAUUCUGCUGUAUAUUUC,1.18
3,UAUCAGGGGGCCACAGCAGAAGCGUUCACGUCGCAGCCCCUGUCAGAUUCUGGUGAAACUGCGAAUUCUGCUGUAUAUCCC,0.59
4,UAUCAGGGGGCCACAGCAGAAGCGUUCACGUCGCAGCCCCUGUCAGAUUCUGGUGAAUCAGCGAAGUCCGCAGUAUAUCUC,0.41
5,UAUCAGGGGGCCACAGCAGAAGCGUUCACGUCGCAGCCCCUGUCAGAUUCUGGUGAAUCCGCGAAUACUGCUGUAUACCUC,0.4
6,UAUCAGGGGGCCACAGCAGAAGCGUUCACGUCGCAGCCCCUGUCAGAUUCUGGUGAAUCUGCGAACCCUGCUGUAUAUCUC,0.34
7,UAAAGGGGGGCCACAGCAGGAGCGCCCACGUCGCAGCCCCUGCCAGAUUCUGGUGAAUCUGCGAAUUCUGCUGUAUAUCUC,0.54
8,UAAAGGGGGGCCACAGCAGAAGCGUUCACGUCGCAGCCCCUGUCAGAUUCUGGUGAAUCUGCGAAUUCUGCAGUAUAUCUC,0.35
9,UAAAUGGGGGCCACAGCAGAAGCGUUCACGUCGCAGCCCCUGUCAGAUUCUGGUGAAUCUGCGAAUUCAGCUGUAUAUCUC,0.91
10,UAAAAGGGGGCCACGGCUGCAGCGUUCACGUCGCAGCCCCUGUUAGACUCUGGUGAAUCUGCGAAUUCUGCUGUAUAUCUC,0.08
11,UAAAAGGGGGCCACAGCGGAAGCGUUCACGUCGCGGCCCCUGCCAGAUUCUGGUGAAUCUGCGAAUUCUGCUGUAUACCUC,0.62
12,UAAAAGGGGGCCACAGCAGUAGCGUUCACGUCGCAGCCCCUGUCAGAUUCUGGUGAAUCUGCGAAUUCUGCUGAAUAUCUC,0.4
13,UAAAAGGGGGCCACAGCAGAGGCGUUCACGUCGCAGCCCCUGUCAGAUUCUGGUGAAUCUGCGAAUUCAGCUGUAUAUCUC,0.31
14,UAAAAGGGGGCCACAGCAGAAGCGUUCACGUCGCUGCCCUUGACAGAUUCUGGUGAGUCUGCGAAUUCUGCUGUAUAUCUC,0.2
15,UAAAAGGGGGCCACAGCAGAAGCGUUCACGUCGCAGCCCCUGUCUGAUUCUGGUGAACCUGCGAACUCAGCUGUUUAUCUC,0.2
16,UAAAAGGGGGCCACAGCAGAAGCGUUCACGUCGCAGCCCCUGUCAGAUUCUGGUGGAACAGCGAAUUCUGCUGUAUAUCUC,0.39
17,UAAAAGGGGGACACAGCAGAAGCGUUCACGUCGCAGCCCCUGUCAGAUUCUAGUGUAUCUGCGUAUUCUGCCGUAUAUCUC,0.09

row,Variant,self-cleavage
1,UAAAAGGGGGUCACAGCAGAAGUGUUCACGUCGCAGCCCCUGUCAGACCCUGGUGAAUCUGCGAAUUCUGCUGUAUAUCUC,0.06
2,UAAAAGGGGGCUACAGCAGAAGCGUUCACGUCGCAGCCCCUGUCAGAUUCUGGUAAGUCUGCGAAUUCUGCUGUAUAUCUC,1.1
3,UAAAAGUGGGCCACAGCAGAAGCGUUCACGUCGCCGCCCCUGUCAGAUUCUGGUGAACCUGCGAAUUCUGCUGUAUAUCUC,0.28
4,UAAAAGGGAGCUACUGCAGAAGCGUUCACGUCGCAGCCCCUGUCAGAUUCUGGCGAAUCUGCGAAUUCUGCUGUAUAUCUC,0.98
5,UAAAAGGGGGCCACAGCAGAAGCGUCCACGUCGCAGCCCCAGUCAGAUUCUGGUGAUUCUGCGAAUUCUGCUGUAUAUCUC,0.27
6,UAAAAGGGGGCCACAGCAGAAGCGUUCACGCCGCAGCCCCUGUCAGGUUCUGGUGGAUCUGCGAAUUCUGCUGUAUAUCUC,0.53
7,UAAAAGGGGGCCACAGCAGAAGCGUUCACGUCGCAGCCCCCGUCAGAUUCCGGUGAAUCUGCGAAUUCUGCUGUAUAUCUC,1.24
8,UAAGGGGGGGCUACAGCAGAAGCGCCCACGUCGCAGCCCCUGUCUGAUUCUGGUGAAUCUGCGAAUUCUGCUGUAUAUCUC,0.35
9,UAAGUGGGGGCCACAGCAGAAGCGCUCACGUCGCAGCCCCUGUCAGAUUCUGGUGAAUCUGCGAAUUCUGCUGUAUAUCUC,0.27
10,UAAGAGGGGGCCUCUGCAGAAGCGUUCACGCCGCAGCCCCUGUCAGAUUCUGGUGAAUCUGCGAAUUCUGCUGUAUAUCUC,0.82
11,UAAGAGGGGGCCACGGGAGAAGCGUUCACGUCGCUACCCCUGUCAGAUUCUGGUGAAUCUGCGAAUUCUGCUGUAUAUCUC,0.07
12,UAAGAGGGGGCCACUGCAGAAGCGUUCACGUCGCUGCCCCUGACAGGUUCUGGUGAAUCAGCGAAUUCUGCUGUAUAUCUC,0.14
13,UAAGAGGGGGCCACAGCGGAAGCGUUCACGUCGCAGCCCCUGUCAGAUUCUGGUGAAUCUGUGAAUUCUGCUGUAUAUCUC,0.29
14,UAAGAGGGGGCCACAGCUGAAGCGUACGCGUCGCAGCCCCUGUCAGAUUCUGGUGAACCUGCGAACUCUGCUGUAUAUCUC,0.08
15,UAAGAGGGGGCCACAGCAGGAGCGUUCACGUCGCAGCCCCUGUCAGAUUCUGGUGGAUCUGCGGAUUCCGCUGUAUAUCUC,0.15
16,UAAGAGGGGGCCACAGCAGAGGCGUUCACGUCGCAGCCCCUGUCAGAUUCUGGUGAAUCUGCGAAUUAUGCUGUAUAUCUC,0.23
17,UAAGAGGGGGCCACAGCAGAAGCGUUCACGUCGCAGCCCCUGUCGGAUUCUGGUGAAUCUGCAAAAUCUGCUGUAUAUCUC,0.34
